Assay results reported in PubChem BioAssay AID504832 (National Center for Advancing Translational Sciences (NCATS), 2011).
Hit rate of the full screen: of about 310,000 compounds, about 18,000 (5.8%) were called active. Inconclusive means that the source gave no clear call. Such entries were picked first, then a sample of the others. The call rests on the fitted dose curve; in most records, active means well fitted inhibition curve with a large enough effect; inconclusive means small, poorly fitted or top-dose-only effect, or another doubt; inactive means no such curve, though single readings can be large or run the other way. No potency is given beside an inconclusive call; the fits are too rough.

assay: Primary qHTS for delayed death inhibitors of the malarial parasite plastid, 48 hour incubation; conditions: P. falciparum luciferase growth in erythrocytes; series mostly up to 28.7 µM
Outline: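 Luminescence readout; reporter = integrated firefly luciferase in P. falciparum. RBC culture at 2% hematocrit, 0.1% parasitemia final, 37 C/5% CO2; decreased signal taken as growth inhibition.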
On the % scale 0 is the no-effect control and ±100 the full control effect; potency means the concentration at half of the fitted maximal effect; tags describe the fitted curve by direction and shape.

Question: With `COc1cccc(NC(=O)C(Sc2nnc(-c3ccncc3)n2-c2ccc(Cl)cc2)c2ccccc2)c1` (stereo not given) as the compound, how does the Potency read?
Answer: Its Potency is inconclusive [inhibitor, partial curve, poor fit].

Question: With `N#Cc1ccc(C(=O)N2CCN(S(=O)(=O)c3ccc(Cl)s3)CC2)cc1` as the compound, how does the Potency read?
Answer: Its Potency is inconclusive [inhibitor, partial curve].

Question: With `CCOc1ccc(S(=O)(=O)Nc2cccc(C(=O)NCC(c3ccco3)N3CCCC3)c2)cc1` (stereo not given) as the compound, how does the Potency read?
Answer: The Potency was inconclusive [inhibitor, single point].

Question: With `COc1ccccc1CNC(=O)C/C(C)=N/NC(=O)Cc1ccc(Cl)cc1` as the compound, how does the Potency read?
Answer: The Potency was “inactive”.

Question: For `COc1ccc(S(=O)(=O)N2CCN(C(=O)CC3CC4CCC3C4)CC2)cc1` (stereo not given), which Potency is on record?
Answer: The Potency was “inactive”.

Question: For `C=CCOc1ccc(C2C(C#N)=C(N)N(Nc3ccccc3)C3=C2C(=O)CCC3)cc1OC` (stereo not given), which Potency is on record?
Answer: The Potency was active: 8.28 µM.

Question: Which activity change, negative = inhibition does the source give for `COc1ccc(CSC2=CS(=O)(=O)c3ccccc3N2)cc1` here?
Answer: Its activity change, negative = inhibition is inactive: -31.4% [at 5.75 µM].

Question: With `Cc1ccc(-c2nn(-c3cccc(F)c3)cc2CN2CCN(c3ccccn3)CC2)o1` as the compound, how does the Potency read?
Answer: The Potency was inconclusive [inhibitor, full curve, poor fit].

Question: Which Potency does the source give for `O=c1[nH]c(CN2CCN(c3ccccc3O)CC2)nc2scc(-c3ccccc3Cl)c12` here?
Answer: The Potency was active: 5.22 µM.

Question: Which Potency does the source give for `Cc1nnc(SCc2nnc(-c3ccc(Cl)cc3)o2)n1-c1ccccc1` here?
Answer: The Potency was inconclusive [inhibitor, partial curve, poor fit].

Question: For `C/C(=N\NC(=O)C(=O)Nc1ccc(C)cc1)c1ccncc1`, which Potency is on record?
Answer: The Potency was “inactive”.

Question: For `FC(F)Oc1ccc(/C=N/n2c(Cc3ccc(Br)cc3)n[nH]c2=S)cc1`, which Potency is on record?
Answer: The Potency was inconclusive [inhibitor, single point].

Question: Which Potency does the source give for `NC(=O)c1ccccc1NC(=O)CN1CCN(Cc2ccc(Cl)cc2Cl)CC1` here?
Answer: Its Potency is inconclusive [inhibitor, single point].

Question: For `O=[N+]([O-])c1cc(-c2ccc(/C=N/n3cnnc3)o2)ccc1Cl`, which Potency is on record?
Answer: The Potency was “inactive”.

Question: Which Potency does the source give for `CCCCCn1c(=O)c(C(=O)NC(C)c2ccccc2)c(O)c2ccccc21` (stereo not given) here?
Answer: The Potency was inconclusive [inhibitor, single point].

Question: Which Potency does the source give for `COc1ccc(C(CCN2CCCC(C)C2)c2c(OC)cc(OC)c3c(-c4ccccc4)cc(=O)oc23)cc1` (stereo not given) here?
Answer: The Potency was active: 11.7 µM.

Question: With `CC(CC(=O)NC1CCCCC1)S(=O)(=O)c1ccc2c(c1)NC(=O)CO2` (stereo not given) as the compound, how does the Potency read?
Answer: Its Potency is “inactive”.

Question: Which Potency does the source give for `NC(=O)C1CCN(c2nc(-c3ccc([N+](=O)[O-])cc3)cs2)CC1` here?
Answer: The Potency was inconclusive [activator, partial curve].

Question: For `O=C1Nc2ccc(Cl)cc2/C1=C/C1CC=CCC1` (stereo not given), which Potency is on record?
Answer: The Potency was inconclusive [inhibitor, single point].

Question: With `Cc1ccccc1OCCCC(=O)NC1CCCCC1` as the compound, how does the Potency read?
Answer: Its Potency is “inactive”.

Question: For `CN(C(=O)Cc1c(C(=O)O)n(C)c2ccccc12)c1ccc(F)cc1`, which Potency is on record?
Answer: Its Potency is “inactive”.

Question: With `CC(C)(C)N=Cc1c(O)ccc2oc3c(c12)CCCC3` as the compound, how does the activity change, negative = inhibition read?
Answer: Its activity change, negative = inhibition is inactive: 23.2% [at 0.00184 µM].

Question: With `Cc1csc(Nc2nc(N)c(C(=O)Nc3cc(Cl)ccc3F)o2)n1` as the compound, how does the Potency read?
Answer: Its Potency is inconclusive [inhibitor, partial curve].

Question: For `CCOc1ccc(-n2c(=S)sc3c(=O)n(-c4ccc(F)cc4)c(SCC(=O)O)nc32)cc1`, which Potency is on record?
Answer: Its Potency is “inactive”.

Question: With `S=C(c1ccc(OCc2ccccc2)cc1)N1CCCC1` as the compound, how does the Potency read?
Answer: Its Potency is “inactive”.

Question: For `COc1ccc(C(=O)C2CCCN(Cc3cccn3-c3ccccn3)C2)cc1F` (stereo not given), which Potency is on record?
Answer: Its Potency is active: 9.28 µM.

Question: Which Potency does the source give for `CC(Oc1ccccc1)c1ccnc(N)n1` (stereo not given) here?
Answer: Its Potency is “inactive”.

Question: Which Potency does the source give for `Cc1onc(-c2ccccc2)c1C(=O)NNC(=O)c1ccccc1` here?
Answer: Its Potency is inconclusive [inhibitor, partial curve, poor fit].

Question: Which Potency does the source give for `O=C(NCCCCCCNC(=O)c1ccccc1O)c1ccccc1O` here?
Answer: The Potency was active: 8.28 µM.

Question: Which Potency does the source give for `CN(C)/C=C(\C=O)c1ncc(C(F)(F)F)cc1Cl` here?
Answer: Its Potency is “inactive”.

Question: Which Potency does the source give for `COc1ccc(/C=C/C(=O)NC(=S)N2C[C@H]3C[C@H](C2)c2cccc(=O)n2C3)cc1OC` here?
Answer: The Potency was inconclusive [inhibitor, full curve, poor fit].

Question: Which Potency does the source give for `CC(=O)Nc1ccc(S(=O)(=O)NCCSCc2c(Cl)cccc2Cl)cc1` here?
Answer: The Potency was inconclusive [inhibitor, single point].

Question: Which Potency does the source give for `CC(C(=O)NN=C(c1ccccc1)c1ccccc1)N1CCOCC1` (stereo not given) here?
Answer: Its Potency is inconclusive [inhibitor, partial curve, poor fit].

Question: For `O=S(=O)(NC1c2cccc3cccc(c23)C1Sc1ncccn1)c1ccc(Cl)cc1` (stereo not given), which Potency is on record?
Answer: The Potency was inconclusive [inhibitor, single point].

Question: For `CC(C)NC(=O)C(=O)Nc1ccc2c(c1)N(S(=O)(=O)c1cccs1)CCC2`, which Potency is on record?
Answer: The Potency was inconclusive [inhibitor, single point].

Question: Which Potency does the source give for `CCOc1ccc(S(=O)(=O)N2CCC(C(=O)OC(C)C(=O)NC3CCCCC3C)CC2)cc1` (stereo not given) here?
Answer: The Potency was active: 8.28 µM.

Question: Which Potency does the source give for `Oc1ccccc1Nc1nc(NCc2ccco2)c2ccccc2n1` here?
Answer: The Potency was inconclusive [inhibitor, full curve, poor fit].

Question: Which Potency does the source give for `CCN(CC)S(=O)(=O)c1ccc2c(c1)nc(CCC(=O)OCC(=O)N1CCc3ccccc31)n2C` here?
Answer: Its Potency is inconclusive [inhibitor, full curve, poor fit].

Question: For `COc1ccc(C(C(=O)NC2CCCCC2)N(C(=O)c2sc(C)nc2C)c2ccc(OC)cc2)cc1` (stereo not given), which Potency is on record?
Answer: The Potency was “inactive”.

Question: For `COC(=O)C1=C(c2ccc(C(C)=O)cc2)C[C@@H]2CC[C@H]1N2C(=O)N1CCCC1`, which Potency is on record?
Answer: Its Potency is “inactive”.

Question: Which Potency does the source give for `COC(=O)c1c(C(=O)OC)c(-c2cccc(Cl)c2)n2c1CS(=O)C2` (stereo not given) here?
Answer: The Potency was inconclusive [inhibitor, single point].

Question: With `CCCCCN1C/C=C\C(c2ccc(OC)cc2)N(Cc2ccc(F)cc2)C(=O)C1` (stereo not given) as the compound, how does the Potency read?
Answer: Its Potency is inconclusive [inhibitor, single point].

Question: For `O=C(Cn1c(=O)oc2ccccc21)NC(=O)NCc1ccccc1`, which Potency is on record?
Answer: Its Potency is inconclusive [inhibitor, full curve, poor fit].

Question: With `O=C1NC(=O)C(CCc2ccncc2)(CCc2ccccn2)C(=O)N1c1ccc(Br)cc1` (stereo not given) as the compound, how does the Potency read?
Answer: Its Potency is inconclusive [inhibitor, partial curve].

Question: With `O=C(c1cccs1)N1CCCC(c2nc3c(nnn3Cc3ccccc3Cl)c(=O)[nH]2)C1` (stereo not given) as the compound, how does the Potency read?
Answer: Its Potency is “inactive”.

Question: For `Fc1ccc(NCc2nnc(SCc3nnc(-c4ccccc4)o3)n2Cc2ccccc2)cc1`, which Potency is on record?
Answer: The Potency was inconclusive [inhibitor, partial curve].

Question: Which Potency does the source give for `Cc1ccc(C)n1Cc1ccccc1Cl` here?
Answer: Its Potency is “inactive”.

Question: With `COc1ccc(-c2cc(C(F)(F)F)n3ncc(C(=O)NCc4ccco4)c3n2)cc1` as the compound, how does the Potency read?
Answer: Its Potency is inconclusive [inhibitor, partial curve, poor fit].

Question: For `Cc1nn(CC(=O)N(C)C)c(=O)c2ccccc12`, which Potency is on record?
Answer: The Potency was “inactive”.

Question: For `Cc1ccc2cccc(NC(=S)NC(=O)c3ccnn3C)c2n1`, which Potency is on record?
Answer: The Potency was inconclusive [inhibitor, single point].

Question: Which Potency does the source give for `Cn1c(C(=O)N2CCCC(C(=O)NCCc3ccccc3)C2)cc2sccc21` (stereo not given) here?
Answer: Its Potency is inconclusive [inhibitor, partial curve].

Question: For `COc1ccc(-n2c(C)cc(C(=O)CN3C(=O)NC4(CCCc5sccc54)C3=O)c2C)cc1` (stereo not given), which Potency is on record?
Answer: Its Potency is inconclusive [inhibitor, single point].

Question: With `Cc1cc(OCC(=O)NCC(c2ccc(F)cc2)N2CCOCC2)ccc1Cl` (stereo not given) as the compound, how does the Potency read?
Answer: Its Potency is active: 9.28 µM.

Question: Which Potency does the source give for `CN(Cc1ccccc1)c1nc2c(c(=O)[nH]c(=O)n2C)n1CCSc1nc2ccccc2[nH]1` here?
Answer: The Potency was active: 8.28 µM.

Question: Which Potency does the source give for `COc1ccc(-c2cc(C(=O)NCCCN3CCOCC3)on2)cc1OC` here?
Answer: The Potency was inconclusive [inhibitor, full curve, poor fit].

Question: For `CC1Cc2ccccc2N1S(=O)(=O)c1cccc(C(=O)Nc2cccnc2)c1` (stereo not given), which Potency is on record?
Answer: The Potency was active: 8.28 µM.

Question: With `COc1cc(/C(C)=N/NC(=O)c2cccc(S(=O)(=O)N3CCCC3)c2)cc(OC)c1OC` as the compound, how does the Potency read?
Answer: Its Potency is inconclusive [inhibitor, partial curve, poor fit].

Question: Which Potency does the source give for `CCN1C(=O)N[C@@H](c2ccc(Br)cc2)C(C(=O)OC)=C1C` here?
Answer: The Potency was inconclusive [inhibitor, single point].

Question: With `COc1cc(-c2cc(C(=O)Nc3nc4ccccc4s3)c3ccccc3n2)cc(OC)c1OC` as the compound, how does the Potency read?
Answer: Its Potency is “inactive”.

Question: For `COc1ccc(C2C(C#N)=C(/N=C/N3CCN(C)CC3)OC3=C2C(=O)CC(C)(C)C3)cc1` (stereo not given), which Potency is on record?
Answer: Its Potency is inconclusive [inhibitor, full curve, poor fit].

Question: For `CCOc1ccc(CCNC(=O)C(C)N2C(=O)CC(C)(C)Sc3ccccc32)cc1` (stereo not given), which Potency is on record?
Answer: The Potency was inconclusive [inhibitor, partial curve].

Question: Which Potency does the source give for `Cc1ccc(C(=O)N(CC(=O)NC2CCCC2)c2ccc3c(c2)OCCO3)s1` here?
Answer: Its Potency is “inactive”.

Question: For `CCOC(=O)c1ccsc1NC(=O)CCS(=O)(=O)c1ccccc1`, which Potency is on record?
Answer: Its Potency is inconclusive [inhibitor, full curve, poor fit].

Question: Which Potency does the source give for `Cc1ccc2c(c1)c(/C=C/c1cc[n+](C)cc1)c(C)n2C` here?
Answer: Its Potency is active: 0.928 µM.

Question: With `CCOc1ccccc1OCCCC(=O)Nc1cccc(S(=O)(=O)N2CCOCC2)c1` as the compound, how does the Potency read?
Answer: Its Potency is active: 13.1 µM.

Question: For `Cc1ccccc1-n1nc(C)c2c(C(=O)NN)cc(-c3ccncc3)nc21`, which Potency is on record?
Answer: The Potency was “inactive”.

Question: With `COCCNC(=O)c1cccc(OC2CCN(Cc3ccc(C(=O)OC)cc3)CC2)c1` as the compound, how does the Potency read?
Answer: Its Potency is inconclusive [inhibitor, partial curve, poor fit].

Question: For `COc1ccccc1N1CCN(C(c2cccs2)c2nnnn2C2CCCC2)CC1` (stereo not given), which Potency is on record?
Answer: Its Potency is active: 13.1 µM.

Question: Which Potency does the source give for `CCOc1ccc2nc(SCC(=O)Nc3cccc(S(=O)(=O)NC4=NCCCCC4)c3)[nH]c2c1` here?
Answer: Its Potency is active: 11.7 µM.

Question: With `Nc1ccccc1C(=O)OCCc1ccccc1` as the compound, how does the Potency read?
Answer: The Potency was “inactive”.
